Assay results taken from the supplement of paper PMC3334620.
In all, about 33,000 sequences were measured (“E-score (-0.5 to 0.5)”: median about -0.01, highest 2% from about 0.26 on). Some of the results follow.

molecular target: Ste12 (UniProt P13574); test: PBM E-score (8-mer binding enrichment) (E-score (-0.5 to 0.5)); higher = stronger / more preferred TF binding; most listed sequences are background and not binding sites; details: protein concentration: 200 nM; construct: GST-DNA-binding domain
Summary of the method: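 Using PURExpress in vitro transcription/translation, GST-tagged yeast transcription factors were made in full-length or DNA-binding-domain form. These were applied at about 100-200 nM to double-stranded universal all-10-mer Agilent arrays, and bound protein was detected with fluorescent anti-GST. Scans were normalised with masliner before the Universal PBM Analysis Suite assigned E-scores to ungapped eight-base words pooled with their reverse complements.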

Sequence | PBM E-score
CGATAACC | 0.114
CGTCGGGC | -0.0929
GAACTAAC | -0.159
CTTATCCC | 0.00653
CAGTGCCC | -0.107
AATACTCC | -0.0267
ACTGAGGC | -0.0132
AATCTATC | 0.128
AACTGGAT | 0.102
CGGTTATA | 0.0781
GAAGCGTA | -0.00895
GCACGGGA | -0.245
GACCTTTA | 0.101
CTGCCCGC | -0.0379
CAATGTGG | 0.0561
ACTAGATA | 0.12
ATAGTTTC | 0.171
CTGACTCA | -0.121
CAGTACGC | -0.0763
GATGTCTA | -0.0534
AATGGAAT | -0.0314
CCTTTACG | -0.0175

Sequence | PBM E-score
CTGAAGCC | -0.142
ATAAAGTG | 0.132
CCTAGGAA | -0.0967
ACGCTAAA | -0.118
GGCCATCA | 0.0574
ACCTTCAT | -0.00155
GATCTGAA | 0.0323
CAGTCGAA | -0.0458
AAGTTATT | 0.0481
GGCGAGAC | -0.1
ATTTTGTC | 0.114
AGGTAAAA | 0.22
TTGTACAA | -0.0082
GCAGCTGA | 0.0442
AATCTTTG | 0.0564
CTACAAAA | 0.228
GAACACCC | -0.188
GCGACAGA | 0.154
CTAGGTCC | -0.0928
AGCCACCG | -0.131
TGCTCCCA | -0.169
GGGTGCCA | -0.0859

Sequence | PBM E-score
CAAGACAA | 0.128
AAAACTAT | 0.184
CTAGATAC | -0.017
AATCGGAG | 0.038
ACCTGGAC | -0.202
AGTAAAGA | -0.06
AATTTATC | 0.281
CAAAACAG | 0.12
GAAAGGCC | -0.176
GGGAACCA | -0.143
CTGGTACA | 0.123
GGGGACTA | -0.258
AGCCAAGC | -0.0471
GCTCTCAA | -0.112
ATAGCAGA | -0.0552
AAGCCGCA | -0.00271
ATGGTTTG | 0.0887
GATTCCCC | -0.171
AACTGTTG | -0.0344
GAAGTCGA | -0.0443
CATAGCAA | 0.116
GGTGAGCA | -0.145

Sequence | PBM E-score
GCATGTAC | -0.0328
CTCGTAAG | 0.101
CGAGTGCA | -0.058
AGCTTATC | 0.0209
CGGCTGAG | -0.141
CTCCCGAG | -0.29
ATTGCGAC | 0.277
CACTTCTC | -0.0367
GCGGTGGA | -0.00579
AGGCGGAT | 0.0168
CCTTACTC | 0.096
ATTAATAC | 0.263
GAGGCCTC | -0.147
ACAACGAC | 0.0895
CTCAGGTA | -0.153
ACGGCTCC | -0.116
ACGTTAGC | -0.0146
ATGTACTG | 0.0248
CAGTAAAC | 0.121
CCTAGGCA | 0.0176
